Here are results for 26 compounds from the antibiotic and cytotoxicity screens of Wong et al. (2023).

Assay [1] has as its system HSkMC (human skeletal muscle cells). As to the kind of experiment: cytotoxicity call (relative viability < 0.9). The conditions noted are these: 10 µM.
The subject of assay [2] is S. aureus RN4220. Description: growth inhibition call (relative growth <= 0.2). The conditions noted are these: 50 µM.

Each structure is given as a SMILES string. This is one part of the list.

As to `C[C@@H]1CN([C@H](C)CO)C(=O)c2cc(NC(=O)Cn3cnnn3)ccc2O[C@H]1CN(C)S(=O)(=O)c1ccc(F)cc1`, the cytotoxicity call in assay [1] was “inactive”. Also, in assay [2], the growth inhibition call was “inactive”.
`CC(C)NC(=O)Nc1ccc2c(c1)CC(=O)N([C@@H](C)CO)C[C@H](C)[C@@H](CN(C)Cc1ccc3c(c1)OCO3)O2`: in assay [1], the cytotoxicity call is “inactive”. In assay [2], the growth inhibition call is “inactive”.
Regarding `C[C@H](O)[C@H](O)[C@@H](O)[C@@H](O)/C=N/NC(=O)c1cccc(C(=O)NO)c1`, the cytotoxicity call in assay [1] was “inactive”. In addition, in assay [2], the growth inhibition call was “inactive”.
As for `O=C(C[C@@H]1C[C@H]2c3cc(NC(=O)c4cccnc4)ccc3O[C@H]2[C@@H](CO)O1)NCc1cc(F)ccc1F`, in assay [1], the cytotoxicity call is “inactive”. In addition, the growth inhibition call in assay [2] was “inactive”.
In the case of `C[C@@H]1CN([C@H](C)CO)C(=O)c2cc(NS(=O)(=O)c3ccccc3)ccc2O[C@@H]1CN(C)S(=O)(=O)c1ccc(F)cc1`, in assay [1], the cytotoxicity call was “inactive”. Moreover, the growth inhibition call in assay [2] is “inactive”.
On to `C[C@@H]1CN([C@H](C)CO)C(=O)c2cc(NC(=O)Nc3ccc(F)cc3)ccc2O[C@@H]1CN(C)CC1CCCCC1`, for which the cytotoxicity call in assay [1] was “inactive”. For the same compound, in assay [2], the growth inhibition call is “inactive”.
Regarding `C[C@@H]1CN([C@@H](C)CO)C(=O)c2c(c3ccccc3n2C)-c2ccccc2CO[C@H]1CN(C)Cc1cccc(F)c1`, the cytotoxicity call in assay [1] was “inactive”. Besides, the growth inhibition call in assay [2] was “inactive”.
For `C[C@H]1O[C@@H](n2cc(F)c(=O)[nH]c2=O)[C@H](O)[C@@H]1O`, the cytotoxicity call in assay [1] was “inactive”. The growth inhibition call in assay [2] was “inactive”.
Turning to `C[C@@H]1CN([C@@H](C)CO)S(=O)(=O)c2ccc(Br)cc2O[C@@H]1CN(C)C(=O)c1ccncc1`, the cytotoxicity call in assay [1] is “inactive”. Also, the growth inhibition call in assay [2] was “inactive”.
Regarding `COc1ccc(NC(=O)N(C)C[C@H]2OCCCC[C@H](C)Oc3ccc(NC(=O)NC4CCCCC4)cc3C(=O)N([C@H](C)CO)C[C@@H]2C)cc1`, the cytotoxicity call in assay [1] was “inactive”. Besides, in assay [2], the growth inhibition call is “inactive”.
With `COc1ccc(NC(=O)Nc2ccc3c(c2)C(=O)N([C@H](C)CO)C[C@H](C)[C@@H](CN(C)Cc2ccc(Cl)c(Cl)c2)OCCCC[C@@H](C)O3)cc1`, the cytotoxicity call in assay [1] was “inactive”. In addition, in assay [2], the growth inhibition call was “inactive”.
As to `C[C@H]1CCCCO[C@H](CN(C)Cc2ccc(Cl)c(Cl)c2)[C@@H](C)CN([C@@H](C)CO)C(=O)c2cc(NC(=O)Nc3ccc(C(F)(F)F)cc3)ccc2O1`, the cytotoxicity call in assay [1] was “inactive”. Moreover, in assay [2], the growth inhibition call is “inactive”.
For the compound `COc1ccc(NC(=O)N2C[C@@H](O)COC[C@@H]3O[C@H](CC(=O)NCc4ccccc4OC)CC[C@H]32)cc1`, the cytotoxicity call in assay [1] was “inactive”. For the same compound, the growth inhibition call in assay [2] is “inactive”.
As to `C[C@@H]1CN([C@H](C)CO)C(=O)c2c(c3ccccc3n2C)-c2ccccc2CO[C@H]1CN(C)Cc1ccc(Cl)c(Cl)c1`, the cytotoxicity call in assay [1] is “inactive”. Further, in assay [2], the growth inhibition call is “inactive”.
As to `COc1ccc(S(=O)(=O)N(C)C[C@@H]2Oc3ccc(NS(=O)(=O)c4c(C)noc4C)cc3C(=O)N([C@@H](C)CO)C[C@H]2C)cc1`, the cytotoxicity call in assay [1] is “inactive”. The growth inhibition call in assay [2] was “inactive”.
In the case of `C[C@@H]1CCCCO[C@H](CN(C)S(=O)(=O)c2ccc(F)cc2)[C@H](C)CN([C@@H](C)CO)C(=O)c2cc(NC(=O)CCC(F)(F)F)ccc2O1`, in assay [1], the cytotoxicity call was “inactive”. Besides, the growth inhibition call in assay [2] was “inactive”.
In the case of `COc1ccc(S(=O)(=O)N(C)C[C@@H]2Oc3c(NC(=O)Nc4cccc5ccccc45)cccc3C(=O)N([C@@H](C)CO)C[C@H]2C)cc1F`, the cytotoxicity call in assay [1] was “inactive”. Further, the growth inhibition call in assay [2] is “inactive”.
`COc1ccc2c3c(n(c2c1)C)[C@@H](CO)N(Cc1cc(cc(c1)OC)OC)C[C@]13CCN(CC1)S(=O)(=O)c1cn(cn1)C`: in assay [1], the cytotoxicity call was “inactive”. The growth inhibition call in assay [2] is “inactive”.
In the case of `COc1ccc(NC(=O)N(C)C[C@H]2Oc3c(NC(=O)CCCCCC(=O)Nc4ccccc4N)cccc3C(=O)N([C@@H](C)CO)C[C@H]2C)cc1`, the cytotoxicity call in assay [1] is “inactive”. The growth inhibition call in assay [2] is “inactive”.
For `C[C@@H]1CN([C@H](C)CO)C(=O)c2cc(NC(=O)Nc3ccccc3)ccc2O[C@@H](C)CCCCO[C@@H]1CN(C)Cc1ccc(C(=O)O)cc1`, the cytotoxicity call in assay [1] was “inactive”. Also, the growth inhibition call in assay [2] is “inactive”.
Consider `O=C(O)CNc1ncccc1O`, for which the cytotoxicity call in assay [1] is “inactive”. Also, the growth inhibition call in assay [2] is “inactive”.
`CNC(=O)[C@@]12CCC3(CCN(C(=O)COC)CC3)[C@H]1CN(S(C)(=O)=O)C2`: the cytotoxicity call in assay [1] was “inactive”. For the same compound, the growth inhibition call in assay [2] is “inactive”.
As for `C[C@H]1CN([C@@H](C)CO)C(=O)c2cc(C#Cc3cccnc3)cnc2O[C@@H]1CN(C)Cc1ccc(F)cc1`, the cytotoxicity call in assay [1] was “inactive”. Besides, in assay [2], the growth inhibition call is “inactive”.
As for `C[C@H]1CCCCO[C@H](CN(C)C(=O)C2CCCCC2)[C@@H](C)CN([C@@H](C)CO)C(=O)c2cc(NC(=O)Nc3ccc(C(F)(F)F)cc3)ccc2O1`, the cytotoxicity call in assay [1] was “active”. Besides, the growth inhibition call in assay [2] was “inactive”.
The matching figures for `Cc1noc(C)c1NC(=O)N(C)C[C@@H]1OCCCC[C@H](C)Oc2ccc(NC(=O)c3ccccc3)cc2C(=O)N([C@@H](C)CO)C[C@@H]1C`: “inactive” and “inactive”.
The matching figures for `C[C@H](CO)N1C[C@H](C)[C@@H](CN(C)Cc2ccc(C(F)(F)F)cc2)Oc2ccc(NC(=O)Nc3ccc4c(c3)OCO4)cc2CC1=O`: “active” and “inactive”.
